Data: the supplement of paper PMC10369915
The list shows a part of the results. Cut-off read from the data, not from the text of the source: active = 3.2 or more and inactive = the rest. Most of these values are background signal.

biological target: SHP2 C-SH2 domain E139D; assay: enrichment score (SH2-bound / input frequency) (ratio); bacterial display of known human phosphotyrosine sites (pTyr-Var adds point mutants) read by sequencing; higher = stronger binding; tyrosines were phosphorylated by kinases first; conditions: peptide library: pTyr-Var
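Note: displayed peptides selected on beads carrying the immobilized SH2 domain, with library peptides lacking any tyrosine serving as negative controls.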

Enrichment score, active:
RGVTHYILQTF [SLC39A4_Y359] 3.32

Enrichment score, inactive:
FGSVMYEFVGK [SLC18A1_Y251] 1.56, LHQSTYQRFDV [SLC7A14_Y693_YF] 0.826, IYRAAYFGVYD [SLC25A4_Y191] 0.972, SQSKGYRPKLY [SIPA1L3_Y1376_G1371S] 0.417, ELQDDYEDMME [SLC4A1_Y8] 0.527, PSFSEYASVQV [SIRPA_Y496] 0.962, TQFWRYFAGNL [SLC25A5_Y112_L111R] 0.677, IFRAAYFGVFD [SLC25A4_Y191_YF] 1.21, LLREWYLQDPY [SIX3_Y225] 2.01, ELAVNYQEQAS [SLC9A9_Y591_I589V] 0.947, YPPTHYIRRVP [SLC4A11_Y820] 0.389, NNKKDYFDMFE [SLC26A3_Y526_K521N_YF] 0.651, SAPDSYIRIGN [SLC38A4_Y27_G29R] 0.786, STEAIYWRFSK [SH3PXD2B_Y42_R43W_YF] 0.745, ALVFLSFCIIF [SIGLEC12_Y494_Y494S] 1.13, VDSIEYEVASQ [SLC7A7_Y7_T5I] 0.709, STEAIYRRFSK [SH3PXD2B_Y42_YF] 0.179

biological target: SHP2 C-SH2 domain wild-type; assay: as above; conditions: peptide library: pTyr-Var

Enrichment score, active:
RGVTHYILQTF [SLC39A4_Y359] 3.26

Enrichment score, inactive:
FGSVMYEFVGK [SLC18A1_Y251] 1.32, LHQSTYQRFDV [SLC7A14_Y693_YF] 0.799, IYRAAYFGVYD [SLC25A4_Y191] 1.03, SQSKGYRPKLY [SIPA1L3_Y1376_G1371S] 0.534, ELQDDYEDMME [SLC4A1_Y8] 0.457, PSFSEYASVQV [SIRPA_Y496] 1.08, TQFWRYFAGNL [SLC25A5_Y112_L111R] 0.681, IFRAAYFGVFD [SLC25A4_Y191_YF] 1.26, LLREWYLQDPY [SIX3_Y225] 2.08, ELAVNYQEQAS [SLC9A9_Y591_I589V] 0.809, YPPTHYIRRVP [SLC4A11_Y820] 0.365, NNKKDYFDMFE [SLC26A3_Y526_K521N_YF] 0.742, SAPDSYIRIGN [SLC38A4_Y27_G29R] 0.609, STEAIYWRFSK [SH3PXD2B_Y42_R43W_YF] 0.718, ALVFLSFCIIF [SIGLEC12_Y494_Y494S] 0.984, VDSIEYEVASQ [SLC7A7_Y7_T5I] 0.557, STEAIYRRFSK [SH3PXD2B_Y42_YF] 0.124

biological target: SHP2 N-SH2 domain L43F; assay: as above; conditions: peptide library: pTyr-Var

Enrichment score, inactive:
FGSVMYEFVGK [SLC18A1_Y251] 1.17, LHQSTYQRFDV [SLC7A14_Y693_YF] 0.934, IYRAAYFGVYD [SLC25A4_Y191] 1.03, SQSKGYRPKLY [SIPA1L3_Y1376_G1371S] 0.526, ELQDDYEDMME [SLC4A1_Y8] 0.461, PSFSEYASVQV [SIRPA_Y496] 0.857, TQFWRYFAGNL [SLC25A5_Y112_L111R] 0.666, IFRAAYFGVFD [SLC25A4_Y191_YF] 1.03, LLREWYLQDPY [SIX3_Y225] 2.01, ELAVNYQEQAS [SLC9A9_Y591_I589V] 0.817, YPPTHYIRRVP [SLC4A11_Y820] 0.412, NNKKDYFDMFE [SLC26A3_Y526_K521N_YF] 0.681, SAPDSYIRIGN [SLC38A4_Y27_G29R] 0.772, STEAIYWRFSK [SH3PXD2B_Y42_R43W_YF] 0.702, ALVFLSFCIIF [SIGLEC12_Y494_Y494S] 1.02, VDSIEYEVASQ [SLC7A7_Y7_T5I] 0.547, STEAIYRRFSK [SH3PXD2B_Y42_YF] 0.147

Enrichment score, active:
RGVTHYILQTF [SLC39A4_Y359] 3.84

biological target: SHP2 N-SH2 domain T42A; assay: as above; conditions: peptide library: pTyr-Var

Enrichment score, inactive:
FGSVMYEFVGK [SLC18A1_Y251] 0.929, RGVTHYILQTF [SLC39A4_Y359] 3.1, LHQSTYQRFDV [SLC7A14_Y693_YF] 0.881, IYRAAYFGVYD [SLC25A4_Y191] 0.8, SQSKGYRPKLY [SIPA1L3_Y1376_G1371S] 0.422, ELQDDYEDMME [SLC4A1_Y8] 0.563, PSFSEYASVQV [SIRPA_Y496] 0.837, TQFWRYFAGNL [SLC25A5_Y112_L111R] 0.703, IFRAAYFGVFD [SLC25A4_Y191_YF] 0.964, LLREWYLQDPY [SIX3_Y225] 1.81, ELAVNYQEQAS [SLC9A9_Y591_I589V] 0.6, YPPTHYIRRVP [SLC4A11_Y820] 0.364, NNKKDYFDMFE [SLC26A3_Y526_K521N_YF] 0.654, SAPDSYIRIGN [SLC38A4_Y27_G29R] 0.679, STEAIYWRFSK [SH3PXD2B_Y42_R43W_YF] 0.952, ALVFLSFCIIF [SIGLEC12_Y494_Y494S] 0.896, VDSIEYEVASQ [SLC7A7_Y7_T5I] 0.522, STEAIYRRFSK [SH3PXD2B_Y42_YF] 0.0515

biological target: SHP2 N-SH2 domain T52S; assay: as above; conditions: peptide library: pTyr-Var

Enrichment score, inactive:
FGSVMYEFVGK [SLC18A1_Y251] 1.26, RGVTHYILQTF [SLC39A4_Y359] 2.57, LHQSTYQRFDV [SLC7A14_Y693_YF] 0.829, IYRAAYFGVYD [SLC25A4_Y191] 0.887, SQSKGYRPKLY [SIPA1L3_Y1376_G1371S] 0.386, ELQDDYEDMME [SLC4A1_Y8] 0.412, PSFSEYASVQV [SIRPA_Y496] 1.28, TQFWRYFAGNL [SLC25A5_Y112_L111R] 0.681, IFRAAYFGVFD [SLC25A4_Y191_YF] 1.18, LLREWYLQDPY [SIX3_Y225] 2.1, ELAVNYQEQAS [SLC9A9_Y591_I589V] 0.755, YPPTHYIRRVP [SLC4A11_Y820] 0.341, NNKKDYFDMFE [SLC26A3_Y526_K521N_YF] 0.752, SAPDSYIRIGN [SLC38A4_Y27_G29R] 0.752, STEAIYWRFSK [SH3PXD2B_Y42_R43W_YF] 0.724, ALVFLSFCIIF [SIGLEC12_Y494_Y494S] 1.02, VDSIEYEVASQ [SLC7A7_Y7_T5I] 0.531, STEAIYRRFSK [SH3PXD2B_Y42_YF] 0.211

biological target: SHP2 N-SH2 domain wild-type; assay: as above; conditions: peptide library: pTyr-Var

Enrichment score, inactive:
FGSVMYEFVGK [SLC18A1_Y251] 1.55, RGVTHYILQTF [SLC39A4_Y359] 3.19, LHQSTYQRFDV [SLC7A14_Y693_YF] 1.06, IYRAAYFGVYD [SLC25A4_Y191] 1.03, SQSKGYRPKLY [SIPA1L3_Y1376_G1371S] 0.318, ELQDDYEDMME [SLC4A1_Y8] 0.474, PSFSEYASVQV [SIRPA_Y496] 0.825, TQFWRYFAGNL [SLC25A5_Y112_L111R] 0.874, IFRAAYFGVFD [SLC25A4_Y191_YF] 0.987, LLREWYLQDPY [SIX3_Y225] 2.03, ELAVNYQEQAS [SLC9A9_Y591_I589V] 0.846, YPPTHYIRRVP [SLC4A11_Y820] 0.33, NNKKDYFDMFE [SLC26A3_Y526_K521N_YF] 0.692, SAPDSYIRIGN [SLC38A4_Y27_G29R] 0.613, STEAIYWRFSK [SH3PXD2B_Y42_R43W_YF] 0.907, ALVFLSFCIIF [SIGLEC12_Y494_Y494S] 1.1, VDSIEYEVASQ [SLC7A7_Y7_T5I] 0.687, STEAIYRRFSK [SH3PXD2B_Y42_YF] 0.341
